In the antibiotic and cytotoxicity screens of Wong et al. (2023):
This is one part of the list.

Tested on: S. aureus RN4220
Assay: growth inhibition call (relative growth <= 0.2)
Settings: 50 µM

Growth inhibition call, inactive:
COc1cccc(C#Cc2ccc3c(c2)O[C@H](CN(C)C(C)=O)[C@@H](C)CN([C@@H](C)CO)S3(=O)=O)c1
O=C(C[C@H]1C[C@@H]2c3cc(NC(=O)Nc4ccc(C(F)(F)F)cc4)ccc3O[C@@H]2[C@@H](CO)O1)NCCc1ccccc1
C[C@@H]1CN([C@@H](C)CO)C(=O)c2cc(NC(=O)CCC(F)(F)F)ccc2O[C@@H](C)CCCCO[C@@H]1CN(C)C(=O)Nc1cccc2ccccc12
CC(C)NC(=O)N(C)C[C@@H]1Oc2c(NS(=O)(=O)c3cn(C)cn3)cccc2C(=O)N([C@@H](C)CO)C[C@@H]1C
C[C@H](CO)N1C[C@H](C)[C@H](CN(C)S(=O)(=O)c2cccs2)Oc2ncc(C#CC(C)(C)O)cc2C1=O
Cc1noc(C)c1S(=O)(=O)N(C)C[C@@H]1Oc2ccc(NS(=O)(=O)c3ccc(F)cc3)cc2CC(=O)N([C@@H](C)CO)C[C@H]1C
NCC[C@@H]1CC[C@H](NC(=O)C2CCCC2)[C@H](CO)O1
C[C@@H]1CN([C@@H](C)CO)C(=O)Cc2cc(NC(=O)Nc3ccc(C(F)(F)F)cc3)ccc2O[C@@H]1CN(C)Cc1ccc(Cl)c(Cl)c1
[N-]=[N+]=Nc1ccccc1[C@H]1OC(c2ccc(OCCCO)cc2)=N[C@@]1(CCS(=O)(=O)c1ccccc1)C(=O)N1CCCCC1
Cc1noc(C)c1S(=O)(=O)N(C)C[C@H]1OCCCC[C@@H](C)Oc2ccc(N(C)C)cc2C(=O)N([C@H](C)CO)C[C@@H]1C
C[C@H]1CN([C@@H](C)CO)C(=O)c2cc(NC(=O)Nc3ccc4c(c3)OCO4)ccc2O[C@H]1CN(C)Cc1ccc(Oc2ccccc2)cc1
COCC(=O)Nc1ccc2c(c1)[C@@H]1C[C@@H](CC(=O)N3CCOCC3)O[C@H](CO)[C@@H]1O2
C[C@@H]1CCCCO[C@@H](CN(C)S(=O)(=O)c2cccs2)[C@H](C)CN([C@H](C)CO)C(=O)c2cc(NC(=O)Cc3ccccc3)ccc2O1
C[C@@H]1CCCCO[C@@H](CN(C)S(=O)(=O)c2ccc(F)cc2)[C@H](C)CN([C@H](C)CO)C(=O)c2cc(NC(=O)Nc3ccc(F)cc3)ccc2O1
C[C@@H]1CN([C@@H](C)CO)C(=O)c2cc(NC(=O)C3CCCCC3)ccc2O[C@@H]1CN(C)Cc1ccc(Oc2ccccc2)cc1
NCCCCNCCCN
CO[C@H]1CN(C)C(=O)c2cc(NC(=O)Nc3cccc(Cl)c3)ccc2OC[C@H](C)N(C(=O)Nc2c(C)noc2C)C[C@@H]1C
C[C@@H]1CCCCO[C@H](CN(C)C(=O)Cc2ccccc2)[C@@H](C)CN([C@@H](C)CO)C(=O)c2cc(NS(=O)(=O)c3cccs3)ccc2O1
C[C@@H]1CCCCO[C@@H](CN(C)C(=O)Nc2ccccc2)[C@H](C)CN([C@H](C)CO)C(=O)c2cc(NC(=O)Cc3ccccc3)ccc2O1
C[C@@H]1CCCCO[C@@H](CN(C)C(=O)Nc2cccc3ccccc23)[C@H](C)CN([C@@H](C)CO)C(=O)c2cc(NC(=O)c3ccncc3)ccc2O1
COC(=O)c1c(CC[C@@H](CO)NC(=O)N[C@@H](C)Cn2cc(C3(O)CCCCC3)nn2)oc(C(C)=O)c1C(=O)OC
COC(=O)Nc1nc2cc(C(=O)c3ccccc3)ccc2[nH]1
C[C@@H](O)C#Cc1ccc2c(c1)O[C@@H](CN(C)C(=O)c1ccccc1)[C@@H](C)CN([C@@H](C)CO)S2(=O)=O
CS(=O)(=O)Nc1ccc2c(c1)[C@@H]1C[C@@H](CC(=O)NCc3ccc(-c4ccccc4)cc3)O[C@@H](CO)[C@@H]1O2
CC(C)(C)[S@@](=O)N1Cc2cc(C(=O)NCc3ccccn3)nc(-c3cccc(-c4ccccc4F)c3)c2[C@H]1CCO
C[C@H]1CN([C@@H](C)CO)S(=O)(=O)c2ccc(Br)cc2O[C@H]1CN(C)C(=O)NC1CCCCC1
C[C@@H]1CN([C@H](C)CO)S(=O)(=O)c2ccc(C#Cc3ccccc3F)cc2O[C@H]1CN(C)C(=O)Cc1cccnc1
COc1ccc(NC(=O)Nc2ccc3c(c2)C(=O)N([C@@H](C)CO)C[C@@H](C)[C@@H](CN(C)Cc2ccc(C(=O)Nc4ccccc4N)cc2)O3)cc1
CC(C)NC(=O)N[C@H]1C=C[C@H](CC(=O)O)O[C@H]1CO
